# From the supplement of paper PMC8728848
# The list shows a part of the results.
# B1: AFL5 (Aspergillus fumigatus), Q4WB00 (protein)
# chain: MDNFMEMTKKLGHQPELLRLRALDATYDDALEGKLVVAPLDMSEPGKKILDSGTADGTWLRNVRSKQSVPHDYYGSDVEGELFPKDPDGITYFAHSFKDPWPQQYLGFFDLVHIRGSLAGSAPEGPAPVIQNLTTLLKPGGWVQLMEMNAFSPPPNGPAMTDFAKMASEMFTGIGVGDFANNNKSMLEDAGLKNVQEKRVIVNLGKKAKPELHDQSIHGVTGPIVPLTSVARTVKSSFTGEQLDALPARVKEELETEGGQVEMIIAFGQKA
# Legend:
# Assay in all cases: glycan array binding signal (z-score within array); higher = stronger binding
# Conditions in all cases: glycan notation: IUPAC condensed, linker removed
# Gal(a1-3)GalNAc = target: Gal(a1-3)GalNAc
# In short: (§1)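 Arrays were curated from the Consortium for Functional Glycomics database, 3228 in total, and kept only where the protein sequence was available. Binding is expressed as a within-array Z-score. This score was averaged across arrays of the same protein sequence at different concentrations or buffers and across linkers, and negative values can be read as non-binding.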
# [1] = target: Gal(a1-3)[Gal(a1-4)]Gal(b1-4)GlcNAc
# In short: as §1
# [2] = target: Gal(a1-4)Gal(b1-3)GlcNAc(b1-2)Man(a1-3)[Gal(a1-4)Gal(b1-3)GlcNAc(b1-2)Man(a1-6)]Man(b1-4)GlcNAc(b1-4)GlcNAc
# In short: as §1
# Gal(a1-4)Gal(b1-4)Glc = target: Gal(a1-4)Gal(b1-4)Glc
# In short: as §1
# Gal(a1-4)Gal(b1-4)GlcNAc = target: Gal(a1-4)Gal(b1-4)GlcNAc
# In short: as §1
# [3] = target: Gal(a1-4)Gal(b1-4)GlcNAc(b1-2)Man(a1-3)[Gal(a1-4)Gal(b1-4)GlcNAc(b1-2)Man(a1-6)]Man(b1-4)GlcNAc(b1-4)GlcNAc
# In short: as §1
# [4] = target: Gal(a1-4)Gal(b1-4)GlcNAc(b1-3)Gal(b1-4)Glc
# In short: as §1
# Gal(a1-4)GlcNAc = target: Gal(a1-4)GlcNAc
# In short: as §1
# Gal(a1-6)Glc = target: Gal(a1-6)Glc
# In short: as §1
# Gal(b1-2)Gal = target: Gal(b1-2)Gal
# In short: as §1
# Gal(b1-3)Gal = target: Gal(b1-3)Gal
# In short: as §1
# Gal(b1-3)Gal(b1-4)GlcNAc = target: Gal(b1-3)Gal(b1-4)GlcNAc
# In short: as §1
# Gal(b1-3)GalNAc = target: Gal(b1-3)GalNAc
# In short: as §1
# [5] = target: Gal(b1-3)GalNAc(a1-3)[Fuc(a1-2)]Gal(b1-4)Glc
# In short: as §1
# [6] = target: Gal(b1-3)GalNAc(a1-3)[Fuc(a1-2)]Gal(b1-4)GlcNAc
# In short: as §1
# Gal(b1-3)GalNAc(b1-3)Gal = target: Gal(b1-3)GalNAc(b1-3)Gal
# In short: as §1
# [7] = target: Gal(b1-3)GalNAc(b1-3)Gal(a1-4)Gal(b1-4)Glc
# In short: as §1
# [8] = target: Gal(b1-3)GalNAc(b1-4)Gal(b1-4)Glc
# In short: as §1
# [9] = target: Gal(b1-3)GalNAc(b1-4)[Neu5Ac(a2-3)]Gal(b1-4)Glc
# In short: as §1
# Gal(b1-3)GlcNAc = target: Gal(b1-3)GlcNAc
# In short: as §1
# [10] = target: Gal(b1-3)GlcNAc(a1-3)Gal(b1-4)GlcNAc
# In short: as §1
# [11] = target: Gal(b1-3)GlcNAc(a1-6)Gal(b1-4)GlcNAc
# In short: as §1
# Gal(b1-3)GlcNAc(b1-2)Man = target: Gal(b1-3)GlcNAc(b1-2)Man
# In short: as §1
# [12] = target: Gal(b1-3)GlcNAc(b1-2)Man(a1-3)[Gal(b1-3)GlcNAc(b1-2)Man(a1-6)]Man(b1-4)GlcNAc(b1-4)GlcNAc
# In short: as §1
# [13] = target: Gal(b1-3)GlcNAc(b1-2)Man(a1-3)[Gal(b1-3)GlcNAc(b1-2)Man(a1-6)]Man(b1-4)GlcNAc(b1-4)[Fuc(a1-6)]GlcNAc
# In short: as §1
# [14] = target: Gal(b1-3)GlcNAc(b1-2)Man(a1-3)[GlcNAc(b1-4)][Gal(b1-3)GlcNAc(b1-2)Man(a1-6)]Man(b1-4)GlcNAc(b1-4)GlcNAc
# In short: as §1
# [15] = target: Gal(b1-3)GlcNAc(b1-2)[Gal(b1-3)GlcNAc(b1-6)]Man(a1-6)[Gal(b1-3)GlcNAc(b1-2)Man(a1-3)]Man(b1-4)GlcNAc(b1-4)GlcNAc
# In short: as §1
# [16] = target: Gal(b1-3)GlcNAc(b1-3)Gal(b1-3)GlcNAc
# In short: as §1
# [17] = target: Gal(b1-3)GlcNAc(b1-3)Gal(b1-4)Glc
# In short: as §1
# [18] = target: Gal(b1-3)GlcNAc(b1-3)Gal(b1-4)GlcNAc
# In short: as §1
# [19] = target: Gal(b1-3)GlcNAc(b1-3)Gal(b1-4)GlcNAc(b1-2)Man(a1-3)[Gal(b1-3)GlcNAc(b1-3)Gal(b1-4)GlcNAc(b1-2)Man(a1-6)]Man(b1-4)GlcNAc(b1-4)GlcNAc
# In short: as §1
# [20] = target: Gal(b1-3)GlcNAc(b1-3)Gal(b1-4)GlcNAc(b1-2)[Gal(b1-3)GlcNAc(b1-3)Gal(b1-4)GlcNAc(b1-6)]Man(a1-6)[Gal(b1-3)GlcNAc(b1-3)Gal(b1-4)GlcNAc(b1-2)Man(a1-3)]Man(b1-4)GlcNAc(b1-4)[Fuc(a1-6)]GlcNAc
# In short: as §1
# [21] = target: Gal(b1-3)GlcNAc(b1-3)Gal(b1-4)GlcNAc(b1-3)Gal(b1-4)GlcNAc(b1-2)[Gal(b1-3)GlcNAc(b1-3)Gal(b1-4)GlcNAc(b1-3)Gal(b1-4)GlcNAc(b1-6)]Man(a1-6)[Gal(b1-3)GlcNAc(b1-3)Gal(b1-4)GlcNAc(b1-3)Gal(b1-4)GlcNAc(b1-2)Man(a1-3)]Man(b1-4)GlcNAc(b1-4)[Fuc(a1-6)]GlcNAc
# In short: as §1
# [22] = target: Gal(b1-3)GlcNAc(b1-3)Gal(b1-4)GlcNAc(b1-6)[Gal(b1-3)GlcNAc(b1-3)]Gal(b1-4)Glc
# In short: as §1
# [23] = target: Gal(b1-3)GlcNAc(b1-3)Gal(b1-4)[Fuc(a1-3)]GlcNAc
# In short: as §1
# [24] = target: Gal(b1-3)GlcNAc(b1-3)Gal(b1-4)[Fuc(a1-3)]GlcNAc(b1-6)[Gal(b1-3)GlcNAc(b1-3)]Gal(b1-4)Glc
# In short: as §1
# [25] = target: Gal(b1-3)GlcNAc(b1-3)GalNAc
# In short: as §1
# [26] = target: Gal(b1-3)GlcNAc(b1-6)Gal(b1-4)GlcNAc
# In short: as §1
binder,measurement,setting,value
B1,glycan array binding signal (z-score),Gal(a1-3)GalNAc,-0.37
same,glycan array binding signal (z-score),[1],0.364
same,glycan array binding signal (z-score),[2],1.13
same,glycan array binding signal (z-score),Gal(a1-4)Gal(b1-4)Glc,-0.237
same,glycan array binding signal (z-score),Gal(a1-4)Gal(b1-4)GlcNAc,0.201
same,glycan array binding signal (z-score),[3],0.301
same,glycan array binding signal (z-score),[4],-0.288
same,glycan array binding signal (z-score),Gal(a1-4)GlcNAc,-0.243
same,glycan array binding signal (z-score),Gal(a1-6)Glc,-0.614
same,glycan array binding signal (z-score),Gal(b1-2)Gal,-0.741
same,glycan array binding signal (z-score),Gal(b1-3)Gal,-0.063
same,glycan array binding signal (z-score),Gal(b1-3)Gal(b1-4)GlcNAc,-0.248
same,glycan array binding signal (z-score),Gal(b1-3)GalNAc,-0.339
same,glycan array binding signal (z-score),[5],0.173
same,glycan array binding signal (z-score),[6],-0.118
same,glycan array binding signal (z-score),Gal(b1-3)GalNAc(b1-3)Gal,0.135
same,glycan array binding signal (z-score),[7],-0.336
same,glycan array binding signal (z-score),[8],0.134
same,glycan array binding signal (z-score),[9],-0.168
same,glycan array binding signal (z-score),Gal(b1-3)GlcNAc,-0.272
same,glycan array binding signal (z-score),[10],0.488
same,glycan array binding signal (z-score),[11],0.179
same,glycan array binding signal (z-score),Gal(b1-3)GlcNAc(b1-2)Man,0.036
same,glycan array binding signal (z-score),[12],0.376
same,glycan array binding signal (z-score),[13],0.328
same,glycan array binding signal (z-score),[14],-0.187
same,glycan array binding signal (z-score),[15],0.203
same,glycan array binding signal (z-score),[16],-0.431
same,glycan array binding signal (z-score),[17],-0.603
same,glycan array binding signal (z-score),[18],-0.242
same,glycan array binding signal (z-score),[19],-0.372
same,glycan array binding signal (z-score),[20],1.17
same,glycan array binding signal (z-score),[21],-0.171
same,glycan array binding signal (z-score),[22],-0.412
same,glycan array binding signal (z-score),[23],0.029
same,glycan array binding signal (z-score),[24],-0.146
same,glycan array binding signal (z-score),[25],0.324
same,glycan array binding signal (z-score),[26],0.137
